This is an account of results in the supplement of paper PMC10369915.

Some of the results follow. Cut-off read from the data, not from the text of the source: active = 3.2 or more and inactive = the rest. Most of these values are background signal.
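Note: displayed peptides selected on beads carrying the immobilized SH2 domain, with library peptides lacking any tyrosine serving as negative controls.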

One assay has as its target SHP2 C-SH2 domain E139D. The assay is described as follows: enrichment score (SH2-bound / input frequency) (ratio); bacterial display of known human phosphotyrosine sites (pTyr-Var adds point mutants) read by sequencing; higher = stronger binding; tyrosines were phosphorylated by kinases first. The following applies: peptide library: pTyr-Var.
TPIYPYLLPKS [PLD2_Y580_T577I]: the enrichment score was inactive: 1.14.
Same read-out and setting: to FKTPTYPFLLP [PLD2_Y578_YF] belongs inactive: 1.21.
The same measure, in the same setting: to TPTYPYLLPKS [PLD2_Y580] belongs inactive: 0.973.
The same measure, in the same setting: for MRAIIYNSSTA [PLEKHA7_Y243_L241I] the value was inactive: 0.896; for YSQNICIQNRN [PKP2_Y631_Y631C], inactive: 0.571.
With ELPEKYSQNIF [PKP2_Y626_YF], the enrichment score is inactive: 0.911.
On the same count and under the same terms, to SIYKDYYRYNF [PLA2G2D_Y85] belongs inactive: 1.55; to TTKAKYKTPIF [PLD2_Y573_T577I_YF], inactive: 1.17.
On to GIYKDYYRYNF [PLA2G2D_Y85_S80G], for which the enrichment score is inactive: 1.09.
For DASAVYLHDFQ [PLCG2_Y242], the enrichment score was inactive: 1.25.
Still for that read-out and setting: for YSQNIYIQNRN [PKP2_Y631] the value was inactive: 1.12.
As for YKTPTYPYLLP [PLD2_Y578], the enrichment score was inactive: 1.15.
The same measure, in the same setting: to PVDVAYRRGYF [PLEC_Y2967] belongs inactive: 0.403; to KFLENYLNCLL [PLD2_Y169_R172C_YF], active: 3.84; to TPTFPYLLPKS [PLD2_Y580_YF], inactive: 1.52.
Consider ADARMCGVLPW [PLP1_Y207_Y207C], for which the enrichment score is inactive: 0.766.
For KRIETYFSKNF [PLP1_Y50_L46R_YF], the enrichment score was inactive: 0.685.
Still for that read-out and setting: to ELPEKYSQNIY [PKP2_Y626] belongs inactive: 0.699.
Take RRSQSYNPTSG [PLEKHA2_Y185_I186N]: the enrichment score was inactive: 0.431.

A further assay has as its target SHP2 C-SH2 domain wild-type. The description is as above. The following applies: peptide library: pTyr-Var.
On to TPIYPYLLPKS [PLD2_Y580_T577I], for which the enrichment score is inactive: 1.12.
On to FKTPTYPFLLP [PLD2_Y578_YF], for which the enrichment score was inactive: 1.1.
Same read-out and setting: for TPTYPYLLPKS [PLD2_Y580] the value was inactive: 0.795; for MRAIIYNSSTA [PLEKHA7_Y243_L241I], inactive: 1.01.
The same measure, in the same setting: to YSQNICIQNRN [PKP2_Y631_Y631C] belongs inactive: 0.828.
Still for that read-out and setting: for ELPEKYSQNIF [PKP2_Y626_YF] the value was inactive: 0.684.
In the case of SIYKDYYRYNF [PLA2G2D_Y85], the enrichment score is inactive: 1.66.
Still for that read-out and setting: to TTKAKYKTPIF [PLD2_Y573_T577I_YF] belongs inactive: 0.979; to GIYKDYYRYNF [PLA2G2D_Y85_S80G], inactive: 1.34; to DASAVYLHDFQ [PLCG2_Y242], inactive: 1.03.
As to YSQNIYIQNRN [PKP2_Y631], the enrichment score was inactive: 1.11.
The same measure, in the same setting: to YKTPTYPYLLP [PLD2_Y578] belongs inactive: 0.915.
Same read-out and setting: to PVDVAYRRGYF [PLEC_Y2967] belongs inactive: 0.538.
The same measure, in the same setting: to KFLENYLNCLL [PLD2_Y169_R172C_YF] belongs active: 3.46.
Take TPTFPYLLPKS [PLD2_Y580_YF]: the enrichment score was inactive: 0.865.
Still for that read-out and setting: for ADARMCGVLPW [PLP1_Y207_Y207C] the value was inactive: 0.898; for KRIETYFSKNF [PLP1_Y50_L46R_YF], inactive: 0.628; for ELPEKYSQNIY [PKP2_Y626], inactive: 0.583.
Still for that read-out and setting: to RRSQSYNPTSG [PLEKHA2_Y185_I186N] belongs inactive: 0.274.

In another assay the target is SHP2 N-SH2 domain L43F. The assay is described as above. The following applies: peptide library: pTyr-Var.
For the molecule TPIYPYLLPKS [PLD2_Y580_T577I], the enrichment score is inactive: 1.02.
Same read-out and setting: to FKTPTYPFLLP [PLD2_Y578_YF] belongs inactive: 1.2; to TPTYPYLLPKS [PLD2_Y580], inactive: 0.728; to MRAIIYNSSTA [PLEKHA7_Y243_L241I], inactive: 1.2.
On to YSQNICIQNRN [PKP2_Y631_Y631C], for which the enrichment score is inactive: 0.583.
Regarding ELPEKYSQNIF [PKP2_Y626_YF], the enrichment score was inactive: 0.943.
As to SIYKDYYRYNF [PLA2G2D_Y85], the enrichment score is inactive: 1.49.
As for TTKAKYKTPIF [PLD2_Y573_T577I_YF], the enrichment score was inactive: 1.09.
As for GIYKDYYRYNF [PLA2G2D_Y85_S80G], the enrichment score was inactive: 1.01.
For DASAVYLHDFQ [PLCG2_Y242], the enrichment score is inactive: 1.13.
Same read-out and setting: to YSQNIYIQNRN [PKP2_Y631] belongs inactive: 1.39; to YKTPTYPYLLP [PLD2_Y578], inactive: 1.1.
On to PVDVAYRRGYF [PLEC_Y2967], for which the enrichment score was inactive: 0.371.
Regarding KFLENYLNCLL [PLD2_Y169_R172C_YF], the enrichment score was active: 3.8.
Still for that read-out and setting: to TPTFPYLLPKS [PLD2_Y580_YF] belongs inactive: 0.996.
On the same count and under the same terms, to ADARMCGVLPW [PLP1_Y207_Y207C] belongs inactive: 0.847; to KRIETYFSKNF [PLP1_Y50_L46R_YF], inactive: 0.618; to ELPEKYSQNIY [PKP2_Y626], inactive: 0.516.
On the same count and under the same terms, to RRSQSYNPTSG [PLEKHA2_Y185_I186N] belongs inactive: 0.153.

For a further assay, the target named is SHP2 N-SH2 domain T42A. Described as above. The following applies: peptide library: pTyr-Var.
As to TPIYPYLLPKS [PLD2_Y580_T577I], the enrichment score was inactive: 0.862.
Same read-out and setting: for FKTPTYPFLLP [PLD2_Y578_YF] the value was inactive: 1.28; for TPTYPYLLPKS [PLD2_Y580], inactive: 0.714.
Still for that read-out and setting: to MRAIIYNSSTA [PLEKHA7_Y243_L241I] belongs inactive: 0.751; to YSQNICIQNRN [PKP2_Y631_Y631C], inactive: 0.683.
Take ELPEKYSQNIF [PKP2_Y626_YF]: the enrichment score is inactive: 0.781.
Still for that read-out and setting: for SIYKDYYRYNF [PLA2G2D_Y85] the value was inactive: 1.77.
Regarding TTKAKYKTPIF [PLD2_Y573_T577I_YF], the enrichment score was inactive: 0.85.
Still for that read-out and setting: for GIYKDYYRYNF [PLA2G2D_Y85_S80G] the value was inactive: 1.01.
As for DASAVYLHDFQ [PLCG2_Y242], the enrichment score is inactive: 1.07.
As for YSQNIYIQNRN [PKP2_Y631], the enrichment score is active: 3.65.
On the same count and under the same terms, for YKTPTYPYLLP [PLD2_Y578] the value was inactive: 1.05.
PVDVAYRRGYF [PLEC_Y2967]: the enrichment score is inactive: 0.353.
In the case of KFLENYLNCLL [PLD2_Y169_R172C_YF], the enrichment score is inactive: 2.78.
On to TPTFPYLLPKS [PLD2_Y580_YF], for which the enrichment score was inactive: 1.09.
The same measure, in the same setting: for ADARMCGVLPW [PLP1_Y207_Y207C] the value was inactive: 0.69.
The same measure, in the same setting: for KRIETYFSKNF [PLP1_Y50_L46R_YF] the value was inactive: 0.526; for ELPEKYSQNIY [PKP2_Y626], inactive: 0.491.
On the same count and under the same terms, to RRSQSYNPTSG [PLEKHA2_Y185_I186N] belongs inactive: 0.302.

The next assay concerns the target SHP2 N-SH2 domain T52S. The description is as above. The following applies: peptide library: pTyr-Var.
In the case of TPIYPYLLPKS [PLD2_Y580_T577I], the enrichment score is inactive: 1.05.
As for FKTPTYPFLLP [PLD2_Y578_YF], the enrichment score was inactive: 1.18.
Still for that read-out and setting: for TPTYPYLLPKS [PLD2_Y580] the value was inactive: 0.726.
On the same count and under the same terms, for MRAIIYNSSTA [PLEKHA7_Y243_L241I] the value was inactive: 1.05; for YSQNICIQNRN [PKP2_Y631_Y631C], inactive: 0.502; for ELPEKYSQNIF [PKP2_Y626_YF], inactive: 0.716.
For the molecule SIYKDYYRYNF [PLA2G2D_Y85], the enrichment score was inactive: 1.6.
The same measure, in the same setting: for TTKAKYKTPIF [PLD2_Y573_T577I_YF] the value was inactive: 1.2; for GIYKDYYRYNF [PLA2G2D_Y85_S80G], inactive: 1.4.
DASAVYLHDFQ [PLCG2_Y242]: the enrichment score is inactive: 1.15.
For the molecule YSQNIYIQNRN [PKP2_Y631], the enrichment score is inactive: 1.43.
Still for that read-out and setting: for YKTPTYPYLLP [PLD2_Y578] the value was inactive: 1.38.
On the same count and under the same terms, to PVDVAYRRGYF [PLEC_Y2967] belongs inactive: 0.237; to KFLENYLNCLL [PLD2_Y169_R172C_YF], inactive: 3.16.
Same read-out and setting: for TPTFPYLLPKS [PLD2_Y580_YF] the value was inactive: 1.07; for ADARMCGVLPW [PLP1_Y207_Y207C], inactive: 0.676; for KRIETYFSKNF [PLP1_Y50_L46R_YF], inactive: 0.607.
In the case of ELPEKYSQNIY [PKP2_Y626], the enrichment score is inactive: 0.606.
Still for that read-out and setting: to RRSQSYNPTSG [PLEKHA2_Y185_I186N] belongs inactive: 0.0967.

The target in the next assay is SHP2 N-SH2 domain wild-type. The description is as above. The following applies: peptide library: pTyr-Var.
Regarding TPIYPYLLPKS [PLD2_Y580_T577I], the enrichment score is inactive: 0.91.
Same read-out and setting: to FKTPTYPFLLP [PLD2_Y578_YF] belongs inactive: 1.02.
With TPTYPYLLPKS [PLD2_Y580], the enrichment score was inactive: 0.625.
Consider MRAIIYNSSTA [PLEKHA7_Y243_L241I], for which the enrichment score is inactive: 0.936.
YSQNICIQNRN [PKP2_Y631_Y631C]: the enrichment score is inactive: 0.661.
Still for that read-out and setting: for ELPEKYSQNIF [PKP2_Y626_YF] the value was inactive: 0.742; for SIYKDYYRYNF [PLA2G2D_Y85], inactive: 1.55.
On the same count and under the same terms, for TTKAKYKTPIF [PLD2_Y573_T577I_YF] the value was inactive: 0.956.
The same measure, in the same setting: for GIYKDYYRYNF [PLA2G2D_Y85_S80G] the value was inactive: 1.52; for DASAVYLHDFQ [PLCG2_Y242], inactive: 1.42; for YSQNIYIQNRN [PKP2_Y631], inactive: 1.23.
As for YKTPTYPYLLP [PLD2_Y578], the enrichment score was inactive: 1.04.
With PVDVAYRRGYF [PLEC_Y2967], the enrichment score was inactive: 0.369.
Same read-out and setting: to KFLENYLNCLL [PLD2_Y169_R172C_YF] belongs inactive: 3.15.
On the same count and under the same terms, to TPTFPYLLPKS [PLD2_Y580_YF] belongs inactive: 1.13.
Same read-out and setting: for ADARMCGVLPW [PLP1_Y207_Y207C] the value was inactive: 1.05.
For the molecule KRIETYFSKNF [PLP1_Y50_L46R_YF], the enrichment score was inactive: 0.739.
On to ELPEKYSQNIY [PKP2_Y626], for which the enrichment score is inactive: 0.783.
Same read-out and setting: to RRSQSYNPTSG [PLEKHA2_Y185_I186N] belongs inactive: 0.404.
